pKd: −log10 of the molar value. Values belong to the substance of their own block, whether it stands above or below them.
What was measured:
human CAIX = biological target: T1, human CAIX (Homo sapiens, UniProt Q16790); test: Biacore 2000 comparative kinetic analysis, CAIX; assay type: binding; details: for pKd: comparative, not absolute; for KDInv/KDOrig: original set to 1.0; for KD(2w)/KD(0): KD after stability test relative to KD before
T1 construct: purchased R&D Systems 2188-CA
Protocol: (§1) A set of polypeptides showing improved stability properties in Example 12 were further assessed in terms of preserved binding capacities to their targets after introduction of alterations in the scaffold, as well as after having been subjected to the stability test, i.e. incubated at 37° C. for 2 weeks. Comparative kinetic constants (kon and koff) and affinities (KD) were determined using a Biacore 2000 instrument. The target proteins human HER2-Fc (R&D Systems, cat. no. 1129-ER-050), human PDGF-Rβ (R&D Systems, cat. no. 385-PR-100/CF), human FcRn (Biorbyt, cat. no. orb 84388) and human CAIX (R&D Systems, cat. no. 2188-CA), respectively, were immobilized on the carboxylated dextran layer surface of CM5 chips (GE Healthcare). The immobilization was performed using amine coupling chemistry according to the manufacturer's protocol and using HBS-EP as running buffer. One flow cell surface on the chip was activated and deactivated for use as blank during analyte injections. The immobilization level of target protein on the respective surface was approximately 850 RU for HER2, 2200 RU for PDGF-Rβ, 750 for FcRn and 580 RU for CAIX.
(§2) HBS-EP (HER2, PDGF-Rβ, CAIX) or a pH 6.0 Na2HPO4/citric acid buffer (126 mM Na2HPO4, 37 mM citric acid) (FcRn) was used as running buffer and the flow rate was 30 μl/min in the binding experiments performed at 25° C. as further described below.
The Z variants Z09782 (SEQ ID NO:36), Z17351 (SEQ ID NO:37), Z17355 (SEQ ID NO:39), and Z17359 (SEQ ID NO:41) targeting CAIX were diluted in running buffer to final concentrations of 30, 90 and 270 nM and injected for 5 minutes, followed by 15 minutes of dissociation in running buffer. Regeneration by three pulses of 10 mM glycin-HCl pH 3.0 followed by 5 min equilibration in running buffer was applied after each analyte injection.
(§3) Kinetic constants were calculated from the sensorgrams using the Langmuir 1:1 model (HER2, FcRn, CAIX) or the 1:1 binding with mass transfer model (PDGF-Rβ) of the BiaEvaluation software 4.1 (GE Healthcare). Curves of the blank surface were subtracted from the curves of the ligand surfaces and the data from the buffer cycles were subtracted from the data of the test-sample cycles to correct for any drift in signal.

[1] = Circular dichroism, variable temperature measurement (Tm) and spectra before and after heating; assay type: physicochemical; details: His6-tagged, 0.5 mg/ml in PBS, CD at 221 nm, 20 to 90° C.
Protocol: Circular dichroism (CD) analysis was carried out to determine the melting temperatures (Tm) and assess potential changes in the secondary structure of the inventive polypeptides as a result of the amino acid substitutions.
Purified His6-tagged Z variants were diluted to 0.5 mg/ml in PBS. For each diluted Z variant, a CD spectrum at 250-195 nm was recorded at 20° C. A variable temperature measurement (VTM) was performed to determine the Tm. In the VTM, the absorbance was measured at 221 nm while the temperature was raised from 20 to 90° C., with a temperature slope of 5° C./min. After the VTM, a second CD spectrum at 250-195 nm was recorded at 20° C. The CD measurements were performed on a Jasco J-810 spectropolarimeter (Jasco Scandinavia AB) using a cell with an optical path-length of 1 mm.

human FcRn = biological target: T2, human FcRn (Homo sapiens, UniProt P55899); test: Biacore 2000 comparative kinetic analysis, FcRn; assay type: binding; details: for KDInv/KDOrig: original set to 1.0; for ka / kd / pKd: pH 6.0; for pKd: comparative, not absolute
T2 construct: purchased Biorbyt orb 84388
Protocol: Comparative kinetic constants (kon and koff) and affinities (KD) were determined using a Biacore 2000 instrument. The target proteins human HER2-Fc (R&D Systems, cat. no. 1129-ER-050), human PDGF-Rβ (R&D Systems, cat. no. 385-PR-100/CF), human FcRn (Biorbyt, cat. no. orb 84388) and human CAIX (R&D Systems, cat. no. 2188-CA), respectively, were immobilized on the carboxylated dextran layer surface of CM5 chips (GE Healthcare). The immobilization was performed using amine coupling chemistry according to the manufacturer's protocol and using HBS-EP as running buffer. One flow cell surface on the chip was activated and deactivated for use as blank during analyte injections.
as §2
Regeneration by three pulses of HBS-EP followed by 10 min equilibration in running buffer was applied after each analyte injection.
as §3

human PDGF-Rβ = biological target: T3, human PDGF-Rβ (Homo sapiens, UniProt P09619); test: Biacore 2000 comparative kinetic analysis, PDGF-Rβ; assay type: binding; details: for pKd: comparative, not absolute; for KDInv/KDOrig: original set to 1.0; for KD(2w)/KD(0): KD after stability test relative to KD before
T3 construct: purchased R&D Systems 385-PR-100/CF
Protocol: as §1, §2
The Z variants Z15805 (SEQ ID NO:30), Z17343 (SEQ ID NO:31), and Z17344 (SEQ ID NO:32) targeting PDGF-R13 were diluted in running buffer to final concentrations of 6.67, 20, 60 and 180 nM and injected for 5 minutes, followed by 20 minutes of dissociation in running buffer. Regeneration by three pulses of 10 mM NaOH followed by 5 min equilibration in running buffer was applied after each analyte injection.
as §3

Substance: Z15805: original Z variant polypeptide targeting PDGF-Rβ, His6-tagged (AEAKYAKELIEAAAEIDALPNLTRRQWNAFIKKLVDDPSQSSELLSEAKKLNDSQAPK; His6 tag; Engineered PDGFRbeta binding Z variant) [reference compound]
ka (human PDGF-Rβ; (0) prior to stability test): 7.15e+06 M/s | kd (human PDGF-Rβ; (0) prior to stability test): 0.00139 s⁻¹ | pKd (human PDGF-Rβ; (0) prior to stability test): 9.72 | KDInv/KDOrig (human PDGF-Rβ; (0) prior to stability test): 1.0 | ka (human PDGF-Rβ; (2w) after 2 weeks at 37° C.): 5.81e+06 M/s | kd (human PDGF-Rβ; (2w) after 2 weeks at 37° C.): 0.00166 s⁻¹ | pKd (human PDGF-Rβ; (2w) after 2 weeks at 37° C.): 9.54 | KDInv/KDOrig (human PDGF-Rβ; (2w) after 2 weeks at 37° C.): 1.0 | KD(2w)/KD(0) (human PDGF-Rβ): 1.47 | Tm (° C.) [1]: 48 °C

Substance: Z17341: inventive HER2 binding Z variant; N52S, D53E (AEAKYAKEMRNAYWEIALLPNLTNQQKRAFIRKLYDDPSQSSELLSEAKKLSESQAPK; Engineered HER2 binding Z variant)
Tm (° C.) [1]: 66 °C

Substance: Z17347: inventive FcRn binding Z variant; N52S, D53E (AEAKYAKEQDAAAHEIRWLPNLTFDQRVAFIHKLADDPSQSSELLSEAKKLSESQAPK; Engineered FcRn binding Z variant)
Tm (° C.) [1]: 50 °C

Substance: Z17351: inventive CAIX binding Z variant; N52S, D53E (AEAKYAKENLFAGWEISDLPNLTDYQRNAFIYKLWDDPSQSSELLSEAKKLSESQAPK; Engineered CAIX binding Z variant)
ka (human CAIX; (0) prior to stability test): 151000 M/s | kd (human CAIX; (0) prior to stability test): 0.00263 s⁻¹ | pKd (human CAIX; (0) prior to stability test): 7.74 | KDInv/KDOrig (human CAIX; (0) prior to stability test): 2.49 | ka (human CAIX; (2w) after 2 weeks at 37° C.): 191000 M/s | kd (human CAIX; (2w) after 2 weeks at 37° C.): 0.00286 s⁻¹ | pKd (human CAIX; (2w) after 2 weeks at 37° C.): 7.82 | KDInv/KDOrig (human CAIX; (2w) after 2 weeks at 37° C.): 1.52 | KD(2w)/KD(0) (human CAIX): 0.86 | Tm (° C.) [1]: 40 °C

Substance: Z17352: inventive CAIX binding Z variant; D36R, D37Q, S39E, N52S, D53E (AEAKYAKENLFAGWEISDLPNLTDYQRNAFIYKLWRQPEQSSELLSEAKKLSESQAPK; Engineered CAIX binding Z variant)
Tm (° C.) [1]: 45 °C

Substance: Z17355: inventive CAIX binding Z variant; D53E (AEAKYAKENLFAGWEISDLPNLTDYQRNAFIYKLWDDPSQSSELLSEAKKLNESQAPK; Engineered CAIX binding Z variant)
Tm (° C.) [1]: 43 °C

Substance: Z17357: inventive CAIX binding Z variant; D36R, D37Q, S39E, D53E (AEAKYAKENLFAGWEISDLPNLTDYQRNAFIYKLWRQPEQSSELLSEAKKLNESQAPK; Engineered CAIX binding Z variant)
Tm (° C.) [1]: 47 °C

Substance: Z17360: inventive CAIX binding Z variant; D36R, D37Q, S39E, N52S (AEAKYAKENLFAGWEISDLPNLTDYQRNAFIYKLWRQPEQSSELLSEAKKLSDSQAPK; Engineered CAIX binding Z variant)
Tm (° C.) [1]: 46 °C

More lines, main results first:

ka (human CAIX; (0) prior to stability test): 208000 M/s | kd (human CAIX; (0) prior to stability test): 0.00146 s⁻¹ | pKd (human CAIX; (0) prior to stability test): 8.15 | KDInv/KDOrig (human CAIX; (0) prior to stability test): 1.0 | ka (human CAIX; (2w) after 2 weeks at 37° C.): 140000 M/s | kd (human CAIX; (2w) after 2 weeks at 37° C.): 0.00138 s⁻¹ | pKd (human CAIX; (2w) after 2 weeks at 37° C.): 8.00 | KDInv/KDOrig (human CAIX; (2w) after 2 weeks at 37° C.): 1.0 | KD(2w)/KD(0) (human CAIX): 1.41
Substance: Z09782: original Z variant polypeptide targeting CAIX, His6-tagged (AEAKYAKENLFAGWEISDLPNLTDYQRNAFIYKLWDDPSQSSELLSEAKKLNDSQAPK; His6 tag; Engineered CAIX binding Z variant) [reference compound]
Tm (° C.) [1]: 43 °C

KDInv/KDOrig (human FcRn; (0) prior to stability test): 1.0 | ka (human FcRn; (0) prior to stability test): 1.6e+06 M/s | kd (human FcRn; (0) prior to stability test): 0.00456 s⁻¹ | pKd (human FcRn; (0) prior to stability test): 8.54 | KDInv/KDOrig (human FcRn; (2w) after 2 weeks at 37° C.): 1.0 | ka (human FcRn; (2w) after 2 weeks at 37° C.): 3.15e+06 M/s | kd (human FcRn; (2w) after 2 weeks at 37° C.): 0.00575 s⁻¹ | pKd (human FcRn; (2w) after 2 weeks at 37° C.): 8.74 | KD(2w)/KD(0) (human FcRn; KD after stability test relative to KD before): 0.64
Substance: Z10103: original Z variant polypeptide targeting FcRn, His6-tagged (AEAKYAKEQDAAAHEIRWLPNLTFDQRVAFIHKLADDPSQSSELLSEAKKLNDSQAPK; His6 tag; Engineered FcRn binding Z variant) [reference compound]
Tm (° C.) [1]: 48 °C

ka (human PDGF-Rβ; (0) prior to stability test): 4.8e+06 M/s | kd (human PDGF-Rβ; (0) prior to stability test): 0.00177 s⁻¹ | pKd (human PDGF-Rβ; (0) prior to stability test): 9.43 | KDInv/KDOrig (human PDGF-Rβ; (0) prior to stability test): 1.90 | ka (human PDGF-Rβ; (2w) after 2 weeks at 37° C.): 6.45e+06 M/s | kd (human PDGF-Rβ; (2w) after 2 weeks at 37° C.): 0.00171 s⁻¹ | pKd (human PDGF-Rβ; (2w) after 2 weeks at 37° C.): 9.58 | KDInv/KDOrig (human PDGF-Rβ; (2w) after 2 weeks at 37° C.): 0.93 | KD(2w)/KD(0) (human PDGF-Rβ): 0.72 | effect of scaffold substitutions on the affinity (human PDGF-Rβ; compared with original Z variant): slightly improved
Substance: Z17343: inventive PDGF-Rβ binding Z variant; N52S, D53E (AEAKYAKELIEAAAEIDALPNLTRRQWNAFIKKLVDDPSQSSELLSEAKKLSESQAPK; Engineered PDGFRbeta binding Z variant)
Tm (° C.) [1]: 46 °C

ka (human CAIX; (0) prior to stability test): 168000 M/s | kd (human CAIX; (0) prior to stability test): 0.00215 s⁻¹ | pKd (human CAIX; (0) prior to stability test): 7.89 | KDInv/KDOrig (human CAIX; (0) prior to stability test): 1.82 | ka (human CAIX; (2w) after 2 weeks at 37° C.): 178000 M/s | kd (human CAIX; (2w) after 2 weeks at 37° C.): 0.00233 s⁻¹ | pKd (human CAIX; (2w) after 2 weeks at 37° C.): 7.89 | KDInv/KDOrig (human CAIX; (2w) after 2 weeks at 37° C.): 1.32 | KD(2w)/KD(0) (human CAIX): 1.02
Substance: Z17359: inventive CAIX binding Z variant; N52S (AEAKYAKENLFAGWEISDLPNLTDYQRNAFIYKLWDDPSQSSELLSEAKKLSDSQAPK; Engineered CAIX binding Z variant)
Tm (° C.) [1]: 41 °C

— USRE49495E1, “Binding polypeptides having a mutated scaffold” (Affibody AB, priority 2013, dated 2023)
